# Measurements taken from PMC12529666.
# Only a part is listed here, and it is no random draw. At the low end of the ranking the order means little.
# Biological target: AGO2 F182del S387D + S824A + S828D + S831D + S834A + del182-182 (UniProt Q9UKV8)
# Test: RNA Bind-n-Seq (nitrocellulose filter binding and sequencing)
# Details: constant regions annealed to DNA blockers; guide miR-122 5' phosphate; 30 mM Tris pH 8.0, 100 mM potassium acetate, 2 mM magnesium acetate, 0.5 mM TCEP, 0.005% NP-40, 0.01 mg/ml yeast tRNA; 3 nM AGO2-miR-122, 100 nM RNA library …; high values mean tight binding
row,Sequence,binding signal (fold enrichment over input)
1,GAGUUCUACAGUCCGACGAUCCCAACAUGCUCUGCACCUGGAAUUCUCGGGUGCCAA / UGGAGUGUGACAAUGGUGUUUG / GATCGTCGGACTGTAGAACTC / TTGGCACCCGAGAATTCCA,0.0578
2,GAGUUCUACAGUCCGACGAUCCCAACACGUUUCACACCUGGAAUUCUCGGGUGCCAA / UGGAGUGUGACAAUGGUGUUUG / GATCGTCGGACTGTAGAACTC / TTGGCACCCGAGAATTCCA,1.44
3,GAGUUCUACAGUCCGACGAUCCCAACGCGCUCCACACCUGGAAUUCUCGGGUGCCAA / UGGAGUGUGACAAUGGUGUUUG / GATCGTCGGACTGTAGAACTC / TTGGCACCCGAGAATTCCA,6.7
4,GAGUUCUACAGUCCGACGAUCCCAACGUGUCCCGCACCUGGAAUUCUCGGGUGCCAA / UGGAGUGUGACAAUGGUGUUUG / GATCGTCGGACTGTAGAACTC / TTGGCACCCGAGAATTCCA,0.038
5,GAGUUCUACAGUCCGACGAUCCCAACGCACUUCGCACCUGGAAUUCUCGGGUGCCAA / UGGAGUGUGACAAUGGUGUUUG / GATCGTCGGACTGTAGAACTC / TTGGCACCCGAGAATTCCA,0.0595
6,GAGUUCUACAGUCCGACGAUCCCAACGUGUUUUACACCUGGAAUUCUCGGGUGCCAA / UGGAGUGUGACAAUGGUGUUUG / GATCGTCGGACTGTAGAACTC / TTGGCACCCGAGAATTCCA,0.0538
7,GAGUUCUACAGUCCGACGAUCCCAACAUAUUCUGCACCUGGAAUUCUCGGGUGCCAA / UGGAGUGUGACAAUGGUGUUUG / GATCGTCGGACTGTAGAACTC / TTGGCACCCGAGAATTCCA,0.0465
8,GAGUUCUACAGUCCGACGAUCCCAACGUGCCCUGCACCUGGAAUUCUCGGGUGCCAA / UGGAGUGUGACAAUGGUGUUUG / GATCGTCGGACTGTAGAACTC / TTGGCACCCGAGAATTCCA,0.0474
9,GAGUUCUACAGUCCGACGAUCCCAACAUAUCCCGCACCUGGAAUUCUCGGGUGCCAA / UGGAGUGUGACAAUGGUGUUUG / GATCGTCGGACTGTAGAACTC / TTGGCACCCGAGAATTCCA,0.0433
10,GAGUUCUACAGUCCGACGAUCCCAACGCGUCCUACACCUGGAAUUCUCGGGUGCCAA / UGGAGUGUGACAAUGGUGUUUG / GATCGTCGGACTGTAGAACTC / TTGGCACCCGAGAATTCCA,0.0709
11,GAGUUCUACAGUCCGACGAUCCCAACGUGUCUUGCACCUGGAAUUCUCGGGUGCCAA / UGGAGUGUGACAAUGGUGUUUG / GATCGTCGGACTGTAGAACTC / TTGGCACCCGAGAATTCCA,0.0322
12,GAGUUCUACAGUCCGACGAUCCCAACGCAUCUUACACCUGGAAUUCUCGGGUGCCAA / UGGAGUGUGACAAUGGUGUUUG / GATCGTCGGACTGTAGAACTC / TTGGCACCCGAGAATTCCA,0.109
13,GAGUUCUACAGUCCGACGAUCCCAACGCGUUUUACACCUGGAAUUCUCGGGUGCCAA / UGGAGUGUGACAAUGGUGUUUG / GATCGTCGGACTGTAGAACTC / TTGGCACCCGAGAATTCCA,0.0706
14,GAGUUCUACAGUCCGACGAUCCCAACGUGCCUCGCACCUGGAAUUCUCGGGUGCCAA / UGGAGUGUGACAAUGGUGUUUG / GATCGTCGGACTGTAGAACTC / TTGGCACCCGAGAATTCCA,0.052
15,GAGUUCUACAGUCCGACGAUCCCAACGCAUCCUGCACCUGGAAUUCUCGGGUGCCAA / UGGAGUGUGACAAUGGUGUUUG / GATCGTCGGACTGTAGAACTC / TTGGCACCCGAGAATTCCA,0.0468
16,GAGUUCUACAGUCCGACGAUCCCAACGCAUUCCGCACCUGGAAUUCUCGGGUGCCAA / UGGAGUGUGACAAUGGUGUUUG / GATCGTCGGACTGTAGAACTC / TTGGCACCCGAGAATTCCA,0.0884
17,GAGUUCUACAGUCCGACGAUCCCAACACAUUCUACACCUGGAAUUCUCGGGUGCCAA / UGGAGUGUGACAAUGGUGUUUG / GATCGTCGGACTGTAGAACTC / TTGGCACCCGAGAATTCCA,0.309
18,GAGUUCUACAGUCCGACGAUCCCAACAUGCUCCGCACCUGGAAUUCUCGGGUGCCAA / UGGAGUGUGACAAUGGUGUUUG / GATCGTCGGACTGTAGAACTC / TTGGCACCCGAGAATTCCA,1.55
19,GAGUUCUACAGUCCGACGAUCCCAACAUGUUUCACACCUGGAAUUCUCGGGUGCCAA / UGGAGUGUGACAAUGGUGUUUG / GATCGTCGGACTGTAGAACTC / TTGGCACCCGAGAATTCCA,0.814
20,GAGUUCUACAGUCCGACGAUCCCAACACGUUUCGCACCUGGAAUUCUCGGGUGCCAA / UGGAGUGUGACAAUGGUGUUUG / GATCGTCGGACTGTAGAACTC / TTGGCACCCGAGAATTCCA,0.0575
21,GAGUUCUACAGUCCGACGAUCCCAACACGUUUUGCACCUGGAAUUCUCGGGUGCCAA / UGGAGUGUGACAAUGGUGUUUG / GATCGTCGGACTGTAGAACTC / TTGGCACCCGAGAATTCCA,0.0468
